Measurements as given in patent US9199944B2 (priority 2012, dated 2015).

What was measured:
Experiment in all cases: cells
[1] = test system: Hs746T (stomach cancer cells); details: Homo sapiens, 72 h, read-out: Hs746TCP GI50 (μM)
[2] = test system: H1993 (lung cancer cells); details: Homo sapiens, NCI-H1993, 72 h, read-out: H1993CP GI50 (μM)
[3] = test system: H2228 (lung cancer cells); details: Homo sapiens, NCI-H2228, 72 h, read-out: H2228CP GI50 (μM)
[4] = test system: H3122 (lung cancer cells); details: Homo sapiens, NCI-H3122, 72 h, read-out: H3122CP GI50 (μM)

Structure (SMILES)	GI50 [1] [µM]	GI50 [2] [µM]	GI50 [3] [µM]	GI50 [4] [µM]
COc1cc(N2CCN(C(C)=O)CC2)ccc1Nc1ncc(F)c(Nc2ccc(N3CCN(C(=O)CO)CC3)cc2OC)n1 [Example 36, 1-(4-(4-(2-(4-(4-acetylpiperazin-1-yl)-2-methoxyphenylamino)-5-fluoropyrimidin-4-ylamino)-3-methoxyphenyl)piperazin-1-yl)-2-hydroxyethanone]	6.49	> 10	1.14	0.014
COc1cc(N2CCN(C(C)=O)CC2)ccc1Nc1ncc(Cl)c(Nc2ccc(N3CCN(C(C)=O)CC3)cc2OC(C)C)n1 [Example 3, 1-(4-(4-(4-(4-(4-acetylpiperazin-1-yl)-2-isopropoxyphenylamino)-5-chloropyrimidin-2-ylamino)-3-methoxyphenyl)piperazin-1-yl)ethanone]	2.92	5.94	1.17	0.41
COC(=O)N1CCN(c2ccc(Nc3nc(Nc4ccc(N5CCN(C(C)=O)CC5)cc4OC)ncc3F)c(OC(F)F)c2)CC1 [Example 41, methyl 4-(4-(2-(4-(4-acetylpiperazin-1-yl)-2-methoxyphenylamino)-5-fluoropyrimidin-4-ylamino)-3-(difluoromethoxy)phenyl)piperazin-1-carboxylate]	6.14	9.88	0.78	0.306
CCNC(=O)N1CCN(c2ccc(Nc3ncc(Cl)c(Nc4ccc(N5CCN(C(=O)NCC)CC5)cc4OC)n3)c(OC)c2)CC1 [Example 78, 4,4′-(((5-chloropyrimidin-2,4-diyl)bis(azanediyl))bis(3-methoxy-4,1-phenylene))bis(N-ethylpiperazin-1-carboxyamide)]	5.06	> 10	0.93	0.43
CCNC(=O)N1CCN(c2ccc(Nc3ncc(C(F)(F)F)c(Nc4ccc(N5CCN(C(=O)NCC)CC5)cc4OC)n3)c(OC)c2)CC1 [Example 71, 4,4′-(((5-(trifluoromethyl)pyrimidin-2,4-diyl)bis(azanediyl))bis(3-methoxy-4,1-phenylene))bis(N-ethylpiperazin-1-carboxyamide)]	2.06	5.7	1.41	0.115
COc1cc(N2CCN(C(C)=O)CC2)ccc1Nc1ncc(F)c(Nc2ccc(N3CCN(C(=O)CO)CC3)cc2OC(F)F)n1 [Example 44, 1-(4-(4-(2-(4-(4-acetylpiperazin-1-yl)-2-methoxyphenylamino)-5-fluoropyrimidin-4-ylamino)-3-(difluoromethoxy)phenyl)piperazin-1-yl)-2-hydroxyethanone]	8.04	> 10	0.952	0.02
COc1cc(N2CCN(S(C)(=O)=O)CC2)ccc1Nc1ncc(Cl)c(Nc2ccc(N3CCN(S(C)(=O)=O)CC3)cc2OC)n1 [Example 79]	8.11	> 10	0.29	0.3
COc1cc(N2CCN(C(C)=O)CC2)ccc1Nc1ncc(Cl)c(Nc2ccc(N3CCN(C(=O)CO)CC3)cc2OC)n1 [Example 14, 1-(4-(4-(2-(4-(4-acetylpiperazin-1-yl)-2-methoxyphenylamino)-5-chloropyrimidin-4-ylamino)-3-methoxyphenyl)piperazin-1-yl)-2-hydroxyethanone]	3.42	7.44	0.093	0.012
CC(=O)N1CCN(c2ccc(Nc3ncc(Cl)c(Nc4ccc(N5CCN(C(C)=O)CC5)cc4)n3)cc2)CC1 [Example 9, 1,1′-(4,4′-(4,4′-(5-chloropyrimidin-2,4-diyl)bis(azanediyl)bis(4,1-phenylene))bis(piperazin-4,1-diyl))diethanone]	1.46	2.14	1.39	0.91
COc1cc(N2CCN(C(C)=O)CC2)ccc1Nc1nc(Nc2ccc(N3CCN(C(C)=O)CC3)cc2)ncc1Cl [Example 10, 1-(4-(4-(4-(4-(4-acetylpiperazin-1-yl)-2-methoxyphenylamino)-5-chloropyrimidin-2-ylamino)phenyl)piperazin-1-yl)ethanone]	1.05	0.977	0.281	0.096
COc1cc(N2CCN(C(C)=O)CC2)ccc1Nc1nc(Nc2ccc(N3CCN(C(C)=O)CC3)cc2)ncc1F [Example 24, 1-(4-(4-(4-(4-(4-acetylpiperazin-1-yl)-2-methoxyphenylamino)-5-fluoropyrimidin-2-ylamino)phenyl)piperazin-1-yl)ethanone]	1.86	13.1	0.932	0.734
COc1cc(N2CCN(C(C)=O)CC2)ccc1Nc1ncc(F)c(Nc2ccc(N3CCNCC3)cc2OC)n1 [Example 25, 1-(4-(4-(5-fluoro-4-(2-methoxy-4-(piperazin-1-yl)phenylamino)pyrimidin-2-ylamino)-3-methoxyphenyl)piperazin-1-yl)ethanone]	> 10	1.08	0.148	0.022
